Results: PubChem BioAssay AID504706 (National Center for Advancing Translational Sciences (NCATS), 2011)
The campaign covered roughly 320,000 compounds. About 200 (0.062%) were called active. This list was built around the results that the source calls inconclusive (neither active nor inactive); the mix of calls is not that of the screen. The call rests on the fitted dose curve; in most records, active means well fitted activation curve with a large enough effect; inconclusive means small, poorly fitted or top-dose-only effect; inactive means no such curve, though single readings can be large or run the other way. No potency is given beside an inconclusive call; the fits are too rough.

Test: qHTS assay for re-activators of p53 using a Luc reporter; further: nearly all actives have a fitted effect of over 45% in size; on activity change, positive = activation: % of control where 0% means no effect
Conditions: H1299 p53-A138V BP100-luciferase reporter, luminescence, 24 h; series mostly up to 92.2 µM; activity change, positive = activation: at the top concentration
Procedure, shortened: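 p53-null H1299 cells stably carrying temperature-sensitive p53-A138V and a BP100-luciferase reporter were pinned with compounds (4-point, 1:5 series) and held 24 hrs at 37 deg C. Luminescence was read 10 min after detection reagent.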
Potency means the concentration at half of the fitted maximal effect; tags describe the fitted curve by direction and shape.

Row | Compound | Potency | activity change, positive = activation
1 | CCN(CC)Cc1c(C(=O)N/N=C/c2cccc(OCc3ccc(F)cc3)c2)nnn1-c1nonc1N | inconclusive [activator, partial curve, poor fit] | 
2 | CCOc1ccc2nc(SCC3CC3(Cl)Cl)[nH]c2c1 (stereo not drawn) | inconclusive [activator, full curve, poor fit] | 
3 | Cc1ccc(NC(=S)NCC2CCCO2)c(OC(F)F)c1 (stereo not drawn) | inconclusive [activator, partial curve, poor fit] | 
4 | C=C(C)c1cccc(C(C)(C)NC(=O)N2CCN(c3ccc(OC)cc3)CC2)c1 |  | inactive: 0.871%
5 | COCCCn1[nH]c2c3c(ccc2c1=O)C(=O)c1ccccc1C3=O | inconclusive [activator, partial curve, poor fit] | 
6 | Cc1cc(NC(C)c2ccccc2)n2ncc(-c3ccccc3)c2n1 (stereo not drawn) | inconclusive [activator, partial curve, poor fit] | 
7 | O=C(Oc1c(CN2CCOCC2)cc(Cl)c2cccnc12)c1ccccc1Br | inconclusive [activator, single point] | 
8 | CCn1c(SCC(=O)c2c[nH]c3ccccc23)nc2cc(S(=O)(=O)N3CCOCC3)ccc21 |  | inactive: -5.73%
9 | CC1=NN(c2ccccc2)C(=O)/C1=C/c1c(O)n(-c2ccc(F)c(Cl)c2)[nH]c1=O | inconclusive [activator, full curve, poor fit] | 
10 | CCCCc1ccc(-c2nc(NC(=O)C3C4CCC(O4)C3C(=O)O)sc2C)cc1 (stereo not drawn) | inconclusive [activator, partial curve, poor fit] | 
11 | Cc1ccc(-n2nc(C)c3c2OC(N)=C(C#N)C3c2ccc(C)o2)cc1 (stereo not drawn) | inconclusive [activator, single point] | 
12 | Cn1c(-c2ccc(F)cc2)cc2onc(-c3c(F)cccc3Cl)c2c1=O | inconclusive [activator, partial curve, poor fit] | 
13 | CCCN(CCC)S(=O)(=O)c1ccc(C(=O)Nc2nnc(CSC)o2)cc1 |  | inactive: 15.7%
14 | CCOC(=O)c1ccc(NC(=O)Cn2nnc3ccccc32)cc1 | inconclusive [activator, full curve, poor fit] | 
15 | Oc1ccc(NCc2ccc(OCc3ccccc3)cc2)cc1 | inconclusive [activator, single point] | 
16 | CC(=O)Oc1ccc(/C=C2\C=C(c3ccc(C)cc3)OC2=O)cc1 |  | inactive: 10.6%
17 | CCOc1ccc(OCCC(=O)OCC(=O)Nc2cc(S(=O)(=O)N3CCOCC3)ccc2C)cc1 | inconclusive [activator, partial curve, poor fit] | 
18 | Cc1cc(F)ccc1NCC(=O)Nc1ccccc1Br | inconclusive [activator, partial curve] | 
19 | CCOc1ccccc1C1N=C(c2ccc(OC)cc2)CC(c2ccccc2O)N1 (stereo not drawn) | inconclusive [activator, full curve, poor fit] | 
20 | Cc1ccc(/C=N/NC(=O)c2cc(C)oc2C)o1 | inconclusive [activator, single point] | 
21 | COc1ccc(S(=O)(=O)NNc2nc(C)cc(C)n2)cc1[N+](=O)[O-] |  | inactive: 1.46%
22 | Cc1ccc(C(=O)Nc2ccsc2C(=O)O)cc1 | inconclusive [activator, full curve, poor fit] | 

Row | Compound | Potency | activity change, positive = activation
23 | Oc1ccccc1CNc1nccs1 | inconclusive [activator, single point] | 
24 | Cc1ccc(-c2nn(-c3ccccc3)cc2/C=C/C(=O)O)o1 |  | inactive: -3.77%
25 | Cc1ccc(OCc2cc(C(=O)N(C)CCc3ccccn3)no2)cn1 |  | inactive: 0.332%
26 | Cc1cc(C)nc(NC(=O)c2ccc(C)c([N+](=O)[O-])c2)n1 | inconclusive [activator, single point] | 
27 | N=c1c(S(=O)(=O)c2ccc(Cl)cc2)cc2c(=O)n3ccccc3nc2n1C1CCCCC1 | inconclusive [activator, single point] | 
28 | O=c1c2ccccc2cnn1-c1ccc(Cl)cc1 | active: 25.1 µM | 
29 | CCOC(=O)c1ccc(NC(=S)N(CCN2CCCCCC2)Cc2ccco2)cc1 |  | inactive: -4.98%
30 | O=C(COc1ccc(Cl)cc1)Nc1ncccn1 | inconclusive [activator, partial curve, poor fit] | 
31 | CCNC(=S)NNC(=O)c1cc(-c2ccc(OC)cc2)nc2ccccc12 | inconclusive [activator, full curve, poor fit] | 
32 | Cc1ccc(-n2cc(C(=O)c3cc(Cl)ccc3O)cc(C#N)c2=O)cc1 |  | inactive: 13.3%
33 | CSc1cccc(NC(=O)c2ccco2)c1 | inconclusive [activator, single point] | 
34 | COc1ccc(NC(=O)CN2CCC(C)CC2)c([N+](=O)[O-])c1 | inconclusive [activator, full curve, poor fit] | 
35 | CCOC(=O)c1ccc(NC(=O)Cn2ncc(Cl)c(Cl)c2=O)cc1 |  | inactive: -29.5%
36 | Fc1ccc2nc(Nc3nc4cc5c(cc4s3)OCCO5)sc2c1 | inconclusive [activator, partial curve, poor fit] | 
37 | COc1ccc(S(=O)(=O)N(C(C)=O)c2ccc3oc(=O)sc3c2)cc1 | inconclusive [activator, partial curve, poor fit] | 
38 | C/C(=N\NC(=O)c1ccc(C)cc1)C1C(=O)c2ccccc2C1=O | inconclusive [activator, partial curve, poor fit] | 
39 | C/C(=N\Nc1nncc2ccccc12)c1ccc(O)cc1 | inconclusive [activator, partial curve, poor fit] | 
40 | O=C1/C(=C/c2ccccc2)CCCc2ccccc21 |  | inactive: 13.3%
41 | CC(C)C[C@H](NC(=O)N1c2ccccc2NC(=O)[C@@H]1C(C)C)C(=O)N1CCC[C@@H]1C(=O)O |  | inactive: 2.65%
42 | COc1ccc(/C=C/C(=O)OCC(=O)NC2CCS(=O)(=O)C2)cc1 (stereo not drawn) | inconclusive [activator, partial curve, poor fit] | 
43 | Clc1ccc(Cc2noc(-c3cccs3)n2)cc1 | inconclusive [activator, partial curve, poor fit] | 
